The source of these data is ChEMBL document CHEMBL2163248, “Classification of inhibitors of hepatic organic anion transporting polypeptides (OATPs): influence of protein expression on drug-drug interactions” (J Med Chem, 2012).

Series [1] has as its target T1, Solute carrier organic anion transporter family member 1B1 (Homo sapiens, UniProt Q9Y6L6).
T1 sequence (Q9Y6L6 whole entry): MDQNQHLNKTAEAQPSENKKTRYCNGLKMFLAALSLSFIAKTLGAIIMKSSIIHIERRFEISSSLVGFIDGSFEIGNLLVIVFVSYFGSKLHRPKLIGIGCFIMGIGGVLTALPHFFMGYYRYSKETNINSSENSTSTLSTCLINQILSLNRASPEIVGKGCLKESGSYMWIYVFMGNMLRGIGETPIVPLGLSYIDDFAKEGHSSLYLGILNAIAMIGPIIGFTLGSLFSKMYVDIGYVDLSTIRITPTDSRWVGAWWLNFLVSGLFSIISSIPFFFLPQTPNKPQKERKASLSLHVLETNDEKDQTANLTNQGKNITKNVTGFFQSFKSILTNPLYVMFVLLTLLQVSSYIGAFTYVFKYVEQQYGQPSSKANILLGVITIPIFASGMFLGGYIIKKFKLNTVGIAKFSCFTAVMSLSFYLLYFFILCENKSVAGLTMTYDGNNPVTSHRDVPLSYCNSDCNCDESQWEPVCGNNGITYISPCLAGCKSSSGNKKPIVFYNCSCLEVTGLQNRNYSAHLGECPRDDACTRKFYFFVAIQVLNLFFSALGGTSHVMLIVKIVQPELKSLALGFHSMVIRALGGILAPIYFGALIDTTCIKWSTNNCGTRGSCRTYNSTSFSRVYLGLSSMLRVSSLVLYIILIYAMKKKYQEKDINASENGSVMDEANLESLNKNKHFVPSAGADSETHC
In words: Inhibition of human liver OATP1B1 expressed in HEK293 Flp-In cells assessed as reduction in E17-betaG uptake at 20 uM by scintillation counting. Particulars: hek293, 20 µM.

The target in series [2] is T2, Solute carrier organic anion transporter family member 2B1 (Homo sapiens, UniProt O94956).
T2 sequence (O94956 whole entry): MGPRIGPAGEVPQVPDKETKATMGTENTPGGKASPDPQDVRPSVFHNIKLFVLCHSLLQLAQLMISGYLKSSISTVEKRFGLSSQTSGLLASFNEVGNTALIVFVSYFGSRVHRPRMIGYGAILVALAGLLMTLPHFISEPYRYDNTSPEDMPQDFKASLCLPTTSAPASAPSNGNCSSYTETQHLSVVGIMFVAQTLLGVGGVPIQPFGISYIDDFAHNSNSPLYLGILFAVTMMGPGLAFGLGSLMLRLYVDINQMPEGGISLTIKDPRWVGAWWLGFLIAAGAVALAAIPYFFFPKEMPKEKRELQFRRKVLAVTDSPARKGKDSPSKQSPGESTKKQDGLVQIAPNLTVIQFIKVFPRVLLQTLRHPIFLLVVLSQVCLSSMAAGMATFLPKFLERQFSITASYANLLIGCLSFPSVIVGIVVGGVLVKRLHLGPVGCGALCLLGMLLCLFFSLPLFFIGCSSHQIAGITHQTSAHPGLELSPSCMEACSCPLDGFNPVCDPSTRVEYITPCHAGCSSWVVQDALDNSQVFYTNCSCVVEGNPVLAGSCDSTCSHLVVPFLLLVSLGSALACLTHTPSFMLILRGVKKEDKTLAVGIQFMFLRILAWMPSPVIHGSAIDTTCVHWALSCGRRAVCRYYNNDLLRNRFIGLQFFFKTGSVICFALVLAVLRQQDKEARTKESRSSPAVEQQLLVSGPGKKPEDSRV
In words: Inhibition of human liver OATP2B1 expressed in HEK293 Flp-In cells assessed as reduction in [3H]E3S uptake at 20 uM incubated for 5 mins by scintillation counting. Particulars: hek293, 5 min.

Series [3] concerns the target T3, Solute carrier organic anion transporter family member 1B3 (Homo sapiens, UniProt Q9NPD5).
T3 sequence (Q9NPD5 whole entry): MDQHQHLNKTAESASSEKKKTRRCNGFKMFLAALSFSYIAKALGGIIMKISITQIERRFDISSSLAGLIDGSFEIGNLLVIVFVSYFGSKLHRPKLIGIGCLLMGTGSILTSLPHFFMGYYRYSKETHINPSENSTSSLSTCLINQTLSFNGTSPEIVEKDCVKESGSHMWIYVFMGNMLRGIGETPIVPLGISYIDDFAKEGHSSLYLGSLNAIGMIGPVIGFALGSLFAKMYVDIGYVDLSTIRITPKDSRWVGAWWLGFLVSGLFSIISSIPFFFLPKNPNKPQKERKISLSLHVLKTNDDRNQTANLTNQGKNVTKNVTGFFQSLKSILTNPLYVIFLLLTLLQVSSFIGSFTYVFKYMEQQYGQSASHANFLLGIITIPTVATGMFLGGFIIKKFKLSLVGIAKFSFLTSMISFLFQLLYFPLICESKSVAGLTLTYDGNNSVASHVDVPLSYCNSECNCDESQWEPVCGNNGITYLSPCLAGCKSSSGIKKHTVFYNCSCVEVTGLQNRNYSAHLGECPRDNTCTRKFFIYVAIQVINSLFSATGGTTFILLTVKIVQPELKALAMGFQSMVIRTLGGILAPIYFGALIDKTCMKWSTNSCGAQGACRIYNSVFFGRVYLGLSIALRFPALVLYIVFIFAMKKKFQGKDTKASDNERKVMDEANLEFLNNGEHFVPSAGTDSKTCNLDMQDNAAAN
Description: Inhibition of human liver OATP1B3 expressed in HEK293 Flp-In cells assessed as reduction in [3H]E17-betaG uptake at 20 uM incubated for 5 mins by scintillation counting. To be noted: hek293, 5 min.

For series [4], the target named is T1, Solute carrier organic anion transporter family member 1B1. Description: Activity at human liver OATP1B1 expressed in HEK293 Flp-In cells. It counts as ADME, cell-based.
Series [5] deals with T3, Solute carrier organic anion transporter family member 1B3. In words: Activity at human liver OATP1B3 expressed in HEK293 Flp-In cells. It counts as ADME, cell-based.
For series [6], the target named is T1, Solute carrier organic anion transporter family member 1B1. In words: Activity at human liver OATP1B1 expressed in HEK293 Flp-In cells assessed as rate of compound transport per mg of protein. It counts as ADME, cell-based.
Series [7] deals with T3, Solute carrier organic anion transporter family member 1B3. Description: Activity at human liver OATP1B3 expressed in HEK293 Flp-In cells assessed as rate of compound transport per mg of protein. It counts as ADME, cell-based.
The target in series [8] is T1, Solute carrier organic anion transporter family member 1B1. In words: Ratio of Vmax to Km for human liver OATP1B1 expressed in HEK293 Flp-In cells assessed per mg protein. It counts as ADME, cell-based.

With `CC(C)NCC(O)COc1ccc(CC(N)=O)cc1` (stereo not drawn) [ATENOLOL], the INH in series [1] worked out at 20.6%; in series [2], 6.8%.
`O=C(O)COCCN1CCN(C(c2ccccc2)c2ccc(Cl)cc2)CC1` (stereo not drawn) [CETIRIZINE]: the INH in series [1] was found to be 35.7%; in series [3] it was 40.3%; in series [2], 29.9%.
Take `CN1C(=O)CN=C(c2ccccc2)c2cc(Cl)ccc21` [DIAZEPAM]: the figures for the INH in series [3] and in series [2] were 9.3% and 51.4%, respectively.
As to `CCOC(=O)N1CCC(=C2c3ccc(Cl)cc3CCc3cccnc32)CC1` [LORATADINE], the figures for the INH in series [1], in series [3] and in series [2] were 43.2%, 45% and 28.1%, respectively.
Consider `CC(C)c1c(C(=O)Nc2ccccc2)c(-c2ccccc2)c(-c2ccc(F)cc2)n1CC[C@@H](O)C[C@@H](O)CC(=O)O` [ATORVASTATIN], for which the Michaelis-Menten constant (Km) (as a rule, the concentration of substrate that gives half-maximal velocity) in series [4] was 0.77 µM; in series [5] it was 0.73 µM. The Vmax – broadly, the top rate of the reaction or transport when substrate is in excess – in series [6] is 6.61 pmol/min; in series [7] it was 2.29 pmol/min. In addition, the Vmax/Km in series [8] amounted to 8.58 µL/min. Moreover, the INH was 96% in series [1], 74.4% in series [3] and 98.3% in series [2].
